# Reference: the supplement of paper PMC10369915
# The other results are listed elsewhere or left out. Rule as the data show it: active = 3.2 or more and inactive = the rest. The signal is at background level for most entries.
# How the values were obtained:
# Test in all cases: enrichment score (SH2-bound / input frequency) (ratio); bacterial display of known human phosphotyrosine sites (pTyr-Var adds point mutants) read by sequencing; higher = stronger binding; tyrosines were phosphorylated by kinases first
# Conditions in all cases: peptide library: Human pTyr
# SHP2 C-SH2 domain E139D = biological target: SHP2 C-SH2 domain E139D
# [1] = biological target: SHP2 C-SH2 domain wild-type
# SHP2 N-SH2 domain L43F = biological target: SHP2 N-SH2 domain L43F
# SHP2 N-SH2 domain T42A = biological target: SHP2 N-SH2 domain T42A
# SHP2 N-SH2 domain T52S = biological target: SHP2 N-SH2 domain T52S
# [2] = biological target: SHP2 N-SH2 domain wild-type
# 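Also: displayed peptides selected on beads carrying the immobilized SH2 domain, with library peptides lacking any tyrosine serving as negative controls.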
Binder,enrichment score (SHP2 C-SH2 domain E139D),enrichment score [1],enrichment score (SHP2 N-SH2 domain L43F),enrichment score (SHP2 N-SH2 domain T42A),enrichment score (SHP2 N-SH2 domain T52S),enrichment score [2]
YAPECINYYKFSSKS [KSYK_HUMAN_546],inactive: 1.7,inactive: 1.63,inactive: 1.14,inactive: 1.58,inactive: 2.34,inactive: 1.91
VELRLRNYAADVVNG [KSYK_HUMAN_629_YA],inactive: 1.18,inactive: 1.02,inactive: 1.12,inactive: 1,inactive: 1.29,inactive: 1.32
GSSQEVTYAQLDHWA [LAIR1_HUMAN_251],inactive: 2.16,active: 4.32,active: 10.8,active: 12.2,active: 6.06,inactive: 2.73
GANSVASYENEGASG [LAT_HUMAN_110],inactive: 0.623,inactive: 0.618,inactive: 0.652,inactive: 0.594,inactive: 0.688,inactive: 0.727
DDYHNPGYLVVLPDS [LAT_HUMAN_161],inactive: 0.839,inactive: 0.584,inactive: 0.696,inactive: 0.666,inactive: 0.658,inactive: 0.738
DDAHNPGYLVVLPDS [LAT_HUMAN_161_YA],inactive: 0.689,inactive: 0.607,inactive: 0.747,inactive: 0.733,inactive: 0.73,inactive: 0.78
SMESIDDYVNVPESG [LAT_HUMAN_200],inactive: 0.694,inactive: 0.88,inactive: 0.711,inactive: 0.923,inactive: 0.876,inactive: 0.811
EEEGAPDYENLQELN [LAT_HUMAN_255],inactive: 1.2,inactive: 0.801,inactive: 1.02,inactive: 0.988,inactive: 1.04,inactive: 1.06
IDPIAMEYANWGRFS [LAT2_HUMAN_118_YA],inactive: 1.11,inactive: 0.753,inactive: 0.72,inactive: 0.994,inactive: 1.22,inactive: 0.888
DPIAMEYYNWGRFSK [LAT2_HUMAN_119],inactive: 1.54,inactive: 1.61,inactive: 1.63,inactive: 1.47,inactive: 1.95,inactive: 2.07
DPIAMEAYNWGRFSK [LAT2_HUMAN_119_YA],inactive: 0.64,inactive: 0.831,inactive: 0.678,inactive: 0.739,inactive: 0.859,inactive: 0.925
SSEDSHDYVNVPTAE [LAX1_HUMAN_193],inactive: 1.3,inactive: 1.23,inactive: 1.38,inactive: 1.27,inactive: 1.47,inactive: 1.71
AFQCCRDYENVPAAD [LAX1_HUMAN_294],inactive: 0.766,inactive: 0.814,inactive: 0.739,inactive: 0.852,inactive: 0.883,inactive: 0.769
MEEDEEDYESSAKLL [LCAP_HUMAN_70],inactive: 1.37,inactive: 1.32,inactive: 1.08,inactive: 1.14,inactive: 1.46,inactive: 1.47
NLDNGGFYISPRITF [LCK_HUMAN_192],inactive: 1.1,inactive: 1,inactive: 0.925,inactive: 0.857,inactive: 1.04,inactive: 0.842
SSFEEDDYESPNDDQ [LCP2_HUMAN_113],inactive: 1.11,inactive: 1.12,inactive: 1.8,inactive: 1.1,inactive: 1.19,inactive: 1.25
STEDTAEYSPFKGGA [ANDR_HUMAN_309_YA],inactive: 0.717,inactive: 0.564,inactive: 0.705,inactive: 0.604,inactive: 0.703,inactive: 0.807
DPDSLADYFKKLNAK [LCP2_HUMAN_23_YA],inactive: 1.06,inactive: 0.789,inactive: 1.23,inactive: 0.787,inactive: 0.967,inactive: 1.29

Binder,enrichment score (SHP2 C-SH2 domain E139D),enrichment score [1],enrichment score (SHP2 N-SH2 domain L43F),enrichment score (SHP2 N-SH2 domain T42A),enrichment score (SHP2 N-SH2 domain T52S),enrichment score [2]
TLKDQLIYNLLKEEQ [LDHA_HUMAN_10],inactive: 0.81,inactive: 0.904,inactive: 1.02,inactive: 0.658,inactive: 1.27,inactive: 1.09
NDKKSIYYLGVTSIK [LEPR_HUMAN_1079],inactive: 2,inactive: 2.24,inactive: 2.01,inactive: 1.92,inactive: 1.9,inactive: 2.45
ASPVVAEYARVQKRK [LIME1_HUMAN_167],inactive: 0.521,inactive: 0.479,inactive: 0.63,inactive: 0.623,inactive: 0.614,inactive: 0.706
ALDEAAAYQSRDAAN [ANDR_HUMAN_359_YA],inactive: 0.522,inactive: 0.378,inactive: 0.561,inactive: 0.502,inactive: 0.53,inactive: 0.503
GDDSDEDYEKVPLPN [3BP2_HUMAN_448],inactive: 1.1,inactive: 0.964,inactive: 0.967,inactive: 0.825,inactive: 1.03,inactive: 1.17
EASQDVTYAQLHSLT [LIRB3_HUMAN_595],inactive: 0.749,inactive: 1.05,inactive: 0.621,inactive: 2.31,inactive: 0.742,inactive: 0.696
YGLAHCKYREDYFVT [LMTK1_HUMAN_279],inactive: 1.57,inactive: 1.35,inactive: 1.49,inactive: 1.28,inactive: 1.89,inactive: 2.28
AGIGFSRYKEDAIET [LMTK2_HUMAN_291_YA],inactive: 1.02,inactive: 0.972,inactive: 0.976,inactive: 1.3,inactive: 1.18,inactive: 1.01
YGLAHSNYKEDYYLT [LMTK3_HUMAN_292],inactive: 1.2,inactive: 1,inactive: 0.776,inactive: 1.01,inactive: 0.745,inactive: 0.799
SNYKEDYYLTPERLW [LMTK3_HUMAN_297],inactive: 0.94,inactive: 0.926,inactive: 1.34,inactive: 1.44,inactive: 1.13,inactive: 0.752
SNAKEDAYLTPERLW [LMTK3_HUMAN_297_YA],inactive: 0.744,inactive: 0.497,inactive: 1.43,inactive: 1.11,inactive: 1.11,inactive: 0.783
APSSGQIYGSGPQGA [LPP_HUMAN_244_YA],inactive: 0.657,inactive: 0.424,inactive: 0.634,inactive: 0.575,inactive: 0.499,inactive: 0.846
KMAEMKKYTLENKEE [LRC47_HUMAN_509],inactive: 1.25,inactive: 1.3,inactive: 1.42,inactive: 1.09,inactive: 1.44,inactive: 1.77
TNFTNPVYATLAMGG [LRP1_HUMAN_4507_YA],inactive: 1.57,inactive: 2.44,inactive: 1.62,active: 4.07,inactive: 1.32,inactive: 0.762
TNASNPVYAKLAMDG [LRP1B_HUMAN_4562_YA],inactive: 1.45,inactive: 2.73,inactive: 1.67,active: 5.06,inactive: 1.43,inactive: 0.764
AYQSRDYYNFPLALA [ANDR_HUMAN_365],inactive: 1.99,inactive: 2.27,inactive: 1.97,inactive: 2.22,inactive: 2.21,inactive: 2.59
FGMARDIYRASAARR [LTK_HUMAN_672_YA],inactive: 0.561,inactive: 0.568,inactive: 0.628,inactive: 0.523,inactive: 0.551,inactive: 0.839
DIYRASYYRRGDRAL [LTK_HUMAN_677],inactive: 0.584,inactive: 0.636,inactive: 0.635,inactive: 0.653,inactive: 0.61,inactive: 0.764
